Results from patent US7517874B2 (priority 2007, dated 2009).
Like-named read-outs stand apart in the source and are kept apart here.

Biological target: human CB2 receptor (hCB2) (Homo sapiens, UniProt P34972)
Test: cell-based
Assay type: cell-based
Conditions: for +/− HCB2: agonist or inverse agonist at hCB2
[1] = groups >100 nM-10 μM and >10 μM, cAMP, CHO-K1 hCB2, read-out: EC50 HCB2

Sequence of human CB2 receptor (hCB2) (P34972 whole entry): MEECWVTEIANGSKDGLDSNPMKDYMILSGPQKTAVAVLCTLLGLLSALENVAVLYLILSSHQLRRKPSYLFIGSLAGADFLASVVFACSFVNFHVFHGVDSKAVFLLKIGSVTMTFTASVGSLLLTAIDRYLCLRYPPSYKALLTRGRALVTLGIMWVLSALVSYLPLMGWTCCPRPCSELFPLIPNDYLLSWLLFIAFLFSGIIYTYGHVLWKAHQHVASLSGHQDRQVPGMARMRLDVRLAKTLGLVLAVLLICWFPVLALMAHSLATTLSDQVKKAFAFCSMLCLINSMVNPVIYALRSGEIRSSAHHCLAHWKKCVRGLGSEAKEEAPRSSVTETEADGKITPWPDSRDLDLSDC

SMILES	EC50	+/− HCB2	other results
Cc1ccc(-c2nc(C(=O)N[C@H](c3nc(C)no3)C(C)(C)C)c3n2CCCNC3)c(F)c1 [Compound 520, (S)-N-(2,2-dimethyl-1-(3-methyl-1,2,4-oxadiazol-5-yl)propyl)-3-(2-fluoro-4-methylphenyl)-6,7,8,9-tetrahydro-5H-imidazo[1,5-a][1,4]diazepine-1-carboxamide]	> 10000 nM		
CNC(=O)[C@@H](NC(=O)c1nc(Cc2ccccc2)n2c1CN(C)CCC2)C(C)(C)C [Compound 459, (S)-3-benzyl-N-(3,3-dimethyl-1-(methylamino)-1-oxobutan-2-yl)-8-methyl-6,7,8,9-tetrahydro-5H-imidazo[1,5-a][1,4]diazepine-1-carboxamide]		+	
CNC(=O)[C@@H](NC(=O)c1nc(-c2cccc3cccnc23)n2c1CN(C)CCC2)C(C)(C)C [Compound 444]		+	
CN1CCn2c(-c3ccc(Cl)cc3F)nc(C(=O)N3CCN(c4ncccn4)CC3)c2C1 [Compound 211, (3-(4-chloro-2-fluorophenyl)-7-methyl-5,6,7,8-tetrahydroimidazo[1,5-a]pyrazin-1-yl)(4-(pyrimidin-2-yl)piperazin-1-yl)methanone]			EC50 [1]: > 10000 nM
CC(=O)N1CCn2c(-c3ccccc3)nc(C(=O)NCC3CCOCC3)c2C1 [Compound 176, 7-acetyl-3-phenyl-N-((tetrahydro-2H-pyran-4-yl)methyl)-5,6,7,8-tetrahydroimidazo[1,5-a]pyrazine-1-carboxamide]	> 10000 nM		
CNC(=O)[C@@H](NC(=O)c1nc(C2CCCC2)n2c1CN(C)CCC2)C(C)(C)C [Compound 497, (S)-3-cyclopentyl-N-(3,3-dimethyl-1-(methylamino)-1-oxobutan-2-yl)-8-methyl-6,7,8,9-tetrahydro-5H-imidazo[1,5-a][1,4]diazepine-1-carboxamide]		+	
Cc1noc([C@@H](NC(=O)c2nc(-c3ccccc3)n3c2CN(C(C)C)CCC3)C(C)(C)C)n1 [Compound 525, (S)-N-(2,2-dimethyl-1-(3-methyl-1,2,4-oxadiazol-5-yl)propyl)-8-isopropyl-3-phenyl-6,7,8,9-tetrahydro-5H-imidazo[1,5-a][1,4]diazepine-1-carboxamide]	> 10000 nM		
CNC(=O)[C@@H](NC(=O)c1nc(-c2ccccc2OC(F)(F)F)n2c1CN(C)CCC2)C(C)(C)C [Compound 333, (S)-N-(3,3-dimethyl-1-(methylamino)-1-oxobutan-2-yl)-8-methyl-3-(2-(trifluoromethoxy)phenyl)-6,7,8,9-tetrahydro-5H-imidazo[1,5-a][1,4]diazepine-1-carboxamide]		+	
CN1CCCn2c(-c3cc(F)ccc3F)nc(C(=O)N[C@H](C(N)=O)C(C)(C)C)c2C1 [Compound 575, (S)-N-(1-amino-3,3-dimethyl-1-oxobutan-2-yl)-3-(2,5-difluorophenyl)-8-methyl-6,7,8,9-tetrahydro-5H-imidazo[1,5-a][1,4]diazepine-1-carboxamide]		+	
Cc1ccc(-c2nc(C(=O)N[C@H](C(=O)O)C(C)(C)C)c3n2CCCN(C(=O)OC(C)(C)C)C3)c(F)c1 [Compound 516, (S)-2-(8-(tert-butoxycarbonyl)-3-(2-fluoro-4-methylphenyl)-6,7,8,9-tetrahydro-5H-imidazo[1,5-a][1,4]diazepine-1-carboxamido)-3,3-dimethylbutanoic acid]	> 10000 nM		
CNC(=O)[C@@H](NC(=O)c1nc(-c2ccc(F)cc2)n2c1CN(C)CCC2)C(C)(C)C [Compound 437, (S)-N-(3,3-dimethyl-1-(methylamino)-1-oxobutan-2-yl)-3-(4-fluorophenyl)-8-methyl-6,7,8,9-tetrahydro-5H-imidazo[1,5-a][1,4]diazepine-1-carboxamide]		+	
CNC(=O)[C@@H](NC(=O)c1nc(-c2ccccc2C(F)(F)F)n2c1CN(C)CCC2)C(C)(C)C [Compound 399, (S)-N-(3,3-dimethyl-1-(methylamino)-1-oxobutan-2-yl)-8-methyl-3-(2-(trifluoromethyl)phenyl)-6,7,8,9-tetrahydro-5H-imidazo[1,5-a][1,4]diazepine-1-carboxamide]		+	
CNC(=O)[C@@H](NC(=O)c1nc(/C=C/c2ccccc2)n2c1CN(C)CCC2)C(C)(C)C [Compound 336, (S,E)-N-(3,3-dimethyl-1-(methylamino)-1-oxobutan-2-yl)-8-methyl-3-styryl-6,7,8,9-tetrahydro-5H-imidazo[1,5-a][1,4]diazepine-1-carboxamide]		+	
CNC(=O)[C@H](C)NC(=O)c1nc(-c2ccccc2)n2c1CN(Cc1cncnc1)CC2 [Compound 77, (S)-N-(1-(methylamino)-1-oxopropan-2-yl)-3-phenyl-7-(pyrimidin-5-ylmethyl)-5,6,7,8-tetrahydroimidazo[1,5-a]pyrazine-1-carboxamide]	> 10000 nM		
CNC(=O)[C@@H](NC(=O)c1nc(-c2cccc(OC)c2F)n2c1CN(C)CCC2)C(C)(C)C [Compound 346, (S)-N-(3,3-dimethyl-1-(methylamino)-1-oxobutan-2-yl)-3-(2-fluoro-3-methoxyphenyl)-8-methyl-6,7,8,9-tetrahydro-5H-imidazo[1,5-a][1,4]diazepine-1-carboxamide]	> 10000 nM		
CNC(=O)[C@@H](NC(=O)c1nc(CCCN2CCOCC2)n2c1CN(C)CC2)C(C)(C)C [Compound 309, (S)-N-(3,3-dimethyl-1-(methylamino)-1-oxobutan-2-yl)-7-methyl-3-(3-morpholinopropyl)-5,6,7,8-tetrahydroimidazo[1,5-a]pyrazine-1-carboxamide]	> 10000 nM		
CNC(=O)[C@@H](NC(=O)c1nc(C(C)C(F)(F)F)n2c1CN(C)CCC2)C(C)(C)C (stereo partly drawn) [Compound 505, N-((S)-3,3-dimethyl-1-(methylamino)-1-oxobutan-2-yl)-8-methyl-3-(1,1,1-trifluoropropan-2-yl)-6,7,8,9-tetrahydro-5H-imidazo[1,5-a][1,4]diazepine-1-carboxamide]		+	
CNC(=O)[C@@H](NC(=O)c1nc(-c2ccccc2)n2c1CN(S(=O)(=O)CC(C)C)CC2)C(C)(C)C [Compound 95, (S)-N-(3,3-dimethyl-1-(methylamino)-1-oxobutan-2-yl)-7-(isobutylsulfonyl)-3-phenyl-5,6,7,8-tetrahydroimidazo[1,5-a]pyrazine-1-carboxamide]		−	
CN1CCCn2c(-c3ccc(Cl)cc3F)nc(C(=O)N[C@@H](CC(C)(C)C)C(N)=O)c2C1 [Compound 584, (S)-N-(1-amino-4,4-dimethyl-1-oxopentan-2-yl)-3-(4-chloro-2-fluorophenyl)-8-methyl-6,7,8,9-tetrahydro-5H-imidazo[1,5-a][1,4]diazepine-1-carboxamide]		+	
CNC(=O)[C@@H](NC(=O)c1nc(-c2ccccc2)n2c1CNCCC2)C(C)(C)C [Compound 314, (S)-N-(3,3-dimethyl-1-(methylamino)-1-oxobutan-2-yl)-3-phenyl-6,7,8,9-tetrahydro-5H-imidazo[1,5-a][1,4]diazepine-1-carboxamide]		+	
CNC(=O)[C@@H](NC(=O)c1nc(-c2ccc(N3CCOCC3)cc2)n2c1CN(C)CCC2)C(C)(C)C [Compound 378, (S)-N-(3,3-dimethyl-1-(methylamino)-1-oxobutan-2-yl)-8-methyl-3-(4-morpholinophenyl)-6,7,8,9-tetrahydro-5H-imidazo[1,5-a][1,4]diazepine-1-carboxamide]	> 10000 nM		
CC(C)CN1CCn2c(-c3ccccc3)nc(C(=O)N[C@@H](C)c3ccccc3)c2C1 [Compound 145, (S)-7-isobutyl-3-phenyl-N-(1-phenylethyl)-5,6,7,8-tetrahydroimidazo[1,5-a]pyrazine-1-carboxamide]		−	
CNC(=O)[C@@H](NC(=O)c1nc(-c2cnc(OC)nc2OC)n2c1CN(C)CCC2)C(C)(C)C [Compound 344, (S)-3-(2,4-dimethoxypyrimidin-5-yl)-N-(3,3-dimethyl-1-(methylamino)-1-oxobutan-2-yl)-8-methyl-6,7,8,9-tetrahydro-5H-imidazo[1,5-a][1,4]diazepine-1-carboxamide]	> 10000 nM		
CNC(=O)[C@@H](NC(=O)c1nc(-c2ccc(NS(C)(=O)=O)cc2)n2c1CN(C)CCC2)C(C)(C)C [Compound 420, (S)-N-(3,3-dimethyl-1-(methylamino)-1-oxobutan-2-yl)-8-methyl-3-(4-(methylsulfonamido)phenyl)-6,7,8,9-tetrahydro-5H-imidazo[1,5-a][1,4]diazepine-1-carboxamide]	> 10000 nM		
CNC(=O)[C@@H](NC(=O)c1nc(C2CCCCC2)n2c1CN(C)CC2)C(C)(C)C [Compound 305, (S)-3-cyclohexyl-N-(3,3-dimethyl-1-(methylamino)-1-oxobutan-2-yl)-7-methyl-5,6,7,8-tetrahydroimidazo[1,5-a]pyrazine-1-carboxamide]		+	
CC(C)CCNC(=O)c1nc(-c2ccc(Cl)cc2)n2c1CNCC2 [Compound 42, 3-(4-chlorophenyl)-N-isopentyl-5,6,7,8-tetrahydroimidazo[1,5-a]pyrazine-1-carboxamide]			EC50 [1]: > 10000 nM
Cc1noc([C@@H](NC(=O)c2nc(-c3ccccc3)n3c2CN(C(=O)OC(C)(C)C)CCC3)C(C)(C)C)n1 [Compound 517, (S)-tert-butyl 1-(2,2-dimethyl-1-(3-methyl-1,2,4-oxadiazol-5-yl)propylcarbamoyl)-3-phenyl-6,7-dihydro-5H-imidazo[1,5-a][1,4]diazepine-8(9H)-carboxylate]		−	
CN1CCn2c(-c3ccccc3)nc(C(=O)N[C@H](C(=O)N(C)C)C(C)(C)C)c2C1 [Compound 79, (S)-N-(1-(dimethylamino)-3,3-dimethyl-1-oxobutan-2-yl)-7-methyl-3-phenyl-5,6,7,8-tetrahydroimidazo[1,5-a]pyrazine-1-carboxamide]		+	
CC(C)CN1CCn2c(-c3ccccc3)nc(C(=O)NC3CCCCC3)c2C1 [Compound 165, N-cyclohexyl-7-isobutyl-3-phenyl-5,6,7,8-tetrahydroimidazo[1,5-a]pyrazine-1-carboxamide]		+	
